Laboratory results reported in patent US12350317B2, “Immunotherapy for the treatment and prevention of inflammatory bowel disease” (THE UAB RESEARCH FOUNDATION, priority 2019, dated 2025).

Tested on: donor CBir1Tg CD4+ T cells
Conditions: day 28

SMILES: CO[C@H]1C[C@@H]2CC[C@@H](C)[C@@](O)(O2)C(=O)C(=O)N2CCCC[C@H]2C(=O)O[C@H]([C@H](C)C[C@@H]2CC[C@@H](O)[C@H](OC)C2)CC(=O)[C@H](C)/C=C(\C)[C@@H](O)[C@@H](OC)C(=O)[C@H](C)C[C@H](C)/C=C/C=C/C=C/1C [rapamycin]
- Effect on host CD4+ cells (TM, Treg): no effect
